The text below walks through data of the RNAGym collection of RNA variant scans (doi:10.7554/elife.90254).

B1: LINE1-mini (parent)
chain: GGCAGAGCUCAACACAGCGUGGCAAAGUGGCUGUGGCUAGACUGCC

The source gives no read counts; variants with many changes may rest on few reads.

This data set covers variants of B1. As to the kind of experiment: self-cleavage, relative activity (ratio to wild type); higher = more cleavage; in vitro, sequencing; the parent is a self-cleaving ribozyme.
For the variant G5C C10U C37A, the self-cleavage is 0.05.
Next, G5A G30A C31U: 0.05; G5A C15G C18U G29U U32C: 0.05; G5A G19A C23A C37U: 0.03.
In the case of G5C C8G C18G G29U C45A, the self-cleavage amounted to 0.05.
The result for G5A A14C G17A C23A U32G G44C reads 0.02.
Consider G5A C10A G22U G30A G35A G44U, for which the self-cleavage came out at 0.01.
Next, G5C G27C C42A: 0.29; G5C G22C C45A: 0.01.
Next, G5A C13G G40U C42A: 0.01; G5A G22U C31A: 0.09.
Next, G5A C8A A11C C13A G22U U43A: 0.05.
G5C G7C A14U C18G C31G A41U: the self-cleavage came to 0.03.
Turning to G5C A6G G27U G33C C42A G44U, the self-cleavage worked out at 0.02.
The result for G5A A25U C37A reads 0.08.
As for G5A A25U C37U, the self-cleavage turned out to be 0.18.
Next, G5C C15U G21A U38G A41U: 0.02.
Next, G5A G29A G35U C37U U38C: 0.04; G5C U9A A14U A16U U28C G35C G40U: 0.13.
Next, G5C U9A G30A U32C: 0.05.
As for G5A C8U U28G, the self-cleavage came out at 0.15.
As for G5C C13A G21A G22U U43C C46G, the self-cleavage came out at 0.01.
Next, G5C G40U A41U: 0.12.
The result for G5C G7A G30A G40C G44C reads 0.05.
Next, G5C C10A G19C A39C C46G: 0.02.
As for G5A A16U G17A C23A, the self-cleavage came to 0.06.
As for G5A C10A C13G G21A G30A, the self-cleavage was 0.03.
Turning to G5C C18A U20C G29A U38A, the self-cleavage worked out at 0.04.
Take G5A A16C U20A: the self-cleavage was 0.3.
Next, G5A G19C C23A: 0.02.
The result for G5A A14C G19U U34A C42G reads 0.03; that for G5C G7A G36U G40A, 0.34.
Next, G5C C13G A14U C42U: 0.04; G5C A11C A14C G17A A25C U38C: 0.01.
As to G5A G22C C23U U38C, the self-cleavage was 0.09.
The result for G5A C10A A14U G17A G19A reads 0.03; that for G5A C10A G17U A26U A41C C45A, 0.
Next, G5C G17U G22U C23A U43A G44C: 0.04; G5C U9A C10U U20A G36A: 0.05.
For the variant G5A G17A G19U G29C, the self-cleavage was 0.01.
Next, G5C C8G A25U: 0.06.
The result for G5A G21U G29U G36A C45A reads 0.12; that for G5C A11U A14C A25U C42G, 0.01.
The result for G5C C13A U20G G29U reads 0.04; that for G5A C13U G17U U32A, 0.05; that for G5C G19C U38A C45G, 0.
With G5A U20C G40C, the self-cleavage was 0.01.
The result for G5C G22C G30C reads 0.06; that for G5A G7C G17A, 0.03; that for G5A C13A G33A G36C, 0.14.
The result for G5C C8U G17A G27A reads 0.1; that for G5C U9A C13A, 0.03; that for G5C A6G A12G G30U, 0.13.
The result for G5A C23G C31A G33U reads 0.08; that for G5C C18A C37U G44U, 0.01.
For the variant G5A C15A C23U G27A, the self-cleavage was found to be 0.05.
Turning to G5A C13G C15A G21U G29U U43C, the self-cleavage was determined as 0.08.
The result for G5A G17U A24G U28G reads 0.03; that for G5C C45G C46A, 0.12.
Consider G5C A16G C18G, for which the self-cleavage is 0.01.
With G5C G17A G30A C31U, the self-cleavage is 0.04.
Next, G5C U9A C18G U20A A41C: 0.04.
In the case of G5C C10U A12U A16G, the self-cleavage was 0.04.
Next, G5C U9C C37G: 0.01; G5C A16C U32G: 0.13.
Take G5C U9A G22A A24U C42U: the self-cleavage is 0.03.
With G5C G7A U20C G36U U38A A41C, the self-cleavage came out at 0.38.
Next, G5C A6C G17A A25U: 0.11; G5C G21U A26G U32C: 0.05; G5C C8A C13U U20C G33C G35U C37G U38A: 0.19.
On to G5A G7U G17U A25G, for which the self-cleavage is 0.3.
Next, G5A A12U G22C C37U G40U C42G: 0.02.
The result for G5C C8U G35A C37G reads 0.09; that for G5A C10U G17C G44U, 0.05.
The result for G5A G7A A14C A16C reads 0.14; that for G5C G21C C37A, 0.02.
For the variant G5A A25G C45A, the self-cleavage worked out at 0.07.
The result for G5A A14C G22C A39C reads 0.1; that for G5A G22A C46G, 0.11; that for G5A A16U G19C U20C A24C G29C G36U, 0.03.
Next, G5C A25G G36A A39G G40U: 0.04.
Consider G5A C10U U32G, for which the self-cleavage is 0.05.
Next, G5C C18U G22A A24C: 0.12; G5C C10U A39G: 0.01.
The result for G5A G7U A16C G40U reads 0.29.
Turning to G5A G21U A25U G30U, the self-cleavage was found to be 0.05.
The result for G5A C8G G19U A39U reads 0.01; that for G5A C10A C18A A41U, 0.01.
With G5A C8A C18A C23U, the self-cleavage came to 0.14.
The result for G5A U20A G29A U38C reads 0.05; that for G5A G33U C46A, 0.05; that for G5A A16U G36C A39G, 0.02.
Next, G5A C10G A14C C23U G30A: 0.02.
The result for G5C A24C U34A C37A reads 0.02.
As to G5C A12C U20A G22U G29A, the self-cleavage is 0.
For G5C C8U C10U A14C C23G, the self-cleavage came out at 0.03.
Next, G5A U34A G40U: 0.05.
For G5C C15U G22C G27A G44A C45G, the self-cleavage stood at 0.01.
Regarding G5A C18U C46G, the self-cleavage turned out to be 0.02.
The result for G5C C10A G17A reads 0.01; that for G5C G19A G33A G40U U43C, 0.02.
Next, G5A C18G C37G A41G: 0.03; G5C G7A A12U U28A: 0.08; G5A C8A C15A C42U: 0.1.
The result for G5A A25U G27A reads 0.35; that for G5A C10U G40C A41C G44U C45U, 0.02.
Regarding G5C C15A C42A C46U, the self-cleavage came out at 0.
The result for G5C C37U G44C reads 0.03; that for G5A C13A G21U, 0.08; that for G5C C31G U34C G35C C42G, 0.01.
Next, G5A G35U A39U C42U: 0.21; G5A C23G A24U A39G C42U: 0.03.
Next, G5C C13G G17C A41U: 0.01; G5A A14G C37U: 0.07; G5A G33C C42U: 0.27.
G5C G29A G35U: the self-cleavage is 0.02.
As to G5C C10A C13U C18U, the self-cleavage was 0.03.
The result for G5A C10A A25C G30U G35C reads 0.03.
The result for G5C C8G U9G C10A G21U C23U reads 0.01; that for G5A A16C G40U, 0.31; that for G5C A14G U28G, 0.02.
Next, G5A U28A G35C C45U: 0.01; G5A G7A C31U G33U C37G: 0.03.
Turning to G5C G30A G33A G40A, the self-cleavage was 0.05.
Next, G5A C13G G19U U28G G44A: 0.02.
With G5C A6C G33U, the self-cleavage is 0.13.
The result for G5A C8G A26U reads 0.05.
Take G5A C10G C18G G21C: the self-cleavage amounted to 0.03.
Next, G5C U9G A24G G36A: 0.03; G5C C8G G33C G35U G36C: 0; G5A G19U A24U G27A A41G: 0.03.
The result for G5A U20A G40U reads 0.04; that for G5A C8A A14G G40C A41G, 0.14; that for G5A C10G A14G U28A U32G, 0.
Next, G5A A14U G35A G36A: 0.12; G5C A11U G22A C45G: 0.03.
In the case of G5A G30A G33C G40C, the self-cleavage came to 0.05.
Next, G5C G7A C10U U28C A41C: 0.05; G5A C8G A14G: 0.04.
Next, G5A A24U C31A A39U: 0.02; G5C G44A C45A: 0.02; G5A C13A C37U: 0.26.
The result for G5C A12U C13A G21C reads 0.04.
For the variant G5C G7U C13U G17A, the self-cleavage amounted to 0.15.
In the case of G5A U32G G33C C37A A39U, the self-cleavage stood at 0.02.
Next, G5C C15U C23G U38G: 0.03.
The result for G5A G21U U28A reads 0.03.
The result for G5A G21U G36A G44C reads 0.15; that for G5A G35U G36A A39G, 0.05.
Consider G5A A16C G17A C23A, for which the self-cleavage is 0.01.
Consider G5A G19A C23A C42A, for which the self-cleavage turned out to be 0.2.
Next, G5A G7C C8A A12U A41U: 0.18; G5A C13A G22A: 0.3.
As for G5C C23U G36A A41U, the self-cleavage worked out at 0.03.
In the case of G5C C13U G21U, the self-cleavage was found to be 0.02.
Next, G5C C8G G44U: 0.21.
The result for G5A G7C C31A A41C reads 0.02.
Next, G5C A11C C13U C18U C23A: 0.01; G5A G30A U32A G44A: 0.06.
For G5C G7U A16G C31A G40A, the self-cleavage turned out to be 0.08.
Next, G5A C8G G21U: 0.06; G5A C8G G21A: 0.85.
Next, G5C C15U G35A A41C: 0.44.
On to G5C C13U U32C G35A, for which the self-cleavage came out at 0.04.
The result for G5C C13A C45U reads 0.04; that for G5C U9C G29A C31A C45A, 0.01.
The result for G5A C23A G40C reads 0.03.
